Lines with a small IC50 respond at low doses; where the fit passes the top or lowest dose, that dose stands as a limit. AUC sums up the same curve from the lowest dose to the 256-fold higher top dose; the more sensitive the line, the further below 1. For part of these data: Where the top dose is marked as inferred, it was calculated from the reported fits. For part of these data: Where an entry number is given, a second screen of the drug exists; the two often differ.
Legend:
Assay in all cases: Viability of human cancer cell lines after 72 h of drug (GDSC screen)
[1] = compound: CC(=O)O[C@@]12CO[C@@H]1C[C@H](O)[C@@]1(C)C(=O)[C@H](O)C3=C(C)[C@@H](OC(=O)[C@H](O)[C@@H](NC(=O)OC(C)(C)C)c4ccccc4)C[C@@](O)([C@@H](OC(=O)c4ccccc4)[C@H]21)C3(C)C [Docetaxel]; details: top dose 0.0125 µM
Procedure: (§1)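 Human cancer cell lines in 384-well plates, medium with 10% serum, drug for 72 h over a 256-fold dose range (nine 2-fold or five 4-fold steps up to the top dose). Adherent lines were fixed and stained with the nucleic acid dye Syto60, suspension lines read with resazurin; signal relative to control wells, capped at 0 and 100%. One two-parameter sigmoid per drug and line, fitted in a mixed model over all curves with the slope shared within a line.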

[2] = compound: CC1(C)CNc2cc(NC(=O)c3cccnc3NCc3ccncc3)ccc21 [AMG-706]; details: top dose 2 µM; top dose inferred
Procedure: as §1

[3] = compound: CCOc1nc(NC(=O)Cc2cc(OC)ccc2OC)cc(N)c1C#N [JNK Inhibitor VIII]; details: top dose 10 µM; top dose inferred
Procedure: as §1

[4] = compound: CN1CCN(c2ccc([N+](=O)[O-])c3no[n+]([O-])c23)CC1 [NSC-207895]; details: top dose 20 µM; top dose inferred
Procedure: as §1

[5] = compound: COC(=O)[C@H](CCSC)NC(=O)c1ccc(NC[C@@H](N)CS)cc1-c1ccccc1 [FTI-277]; details: top dose 1.024 µM; top dose inferred
Procedure: as §1

[6] = compound: COCC[n+]1c2c(n(Cc3cnccn3)c1C)C(=O)c1ccccc1C2=O [YM155]; details: top dose 5.12 µM
Procedure: as §1

[7] = compound: C[C@]1(O)C[C@@H](c2nc(-c3ccc4ccc(-c5ccccc5)nc4c3)c3c(N)nccn32)C1 [OSI-906]; details: top dose 2.56 µM; top dose inferred
Procedure: as §1

[8] = compound: Cc1ccc(C(=O)N(CCCN)[C@@H](c2nc3cc(Cl)ccc3c(=O)n2Cc2ccccc2)C(C)C)cc1 [SB-715992]; details: top dose 0.128 µM; top dose inferred
Procedure: as §1

[9] = compound: Cc1sc2c(c1C)C(c1ccc(Cl)cc1)=N[C@@H](CC(=O)OC(C)(C)C)c1nnc(C)n1-2 [JQ1]
Procedure: as §1

[10] = compound: O=C(/C=C/c1cccc(S(=O)(=O)Nc2ccccc2)c1)NO [Belinostat]; details: top dose 20 µM; top dose inferred
Procedure: as §1

[11] = compound: c1ccc2c(CCNc3ccc(Nc4ccncc4)cc3)c[nH]c2c1 [JNJ-26854165]; details: top dose 10 µM
Procedure: as §1

[12] = top dose 1 µM, screen: GDSC drug entry 1218, top dose inferred
[13] = top dose 2.56 µM, screen: GDSC drug entry 163

Row | Cell Line | AUC [1] | IC50 [1] [µM] | AUC [2] | IC50 [2] [µM] | AUC [3] | IC50 [3] [µM] | AUC [4] | IC50 [4] [µM] | AUC [5] | IC50 [5] [µM] | AUC [6] | IC50 [6] [µM] | AUC [7] | IC50 [7] [µM] | AUC [8] | IC50 [8] [µM] | AUC [9, 12] | IC50 [9, 12] [µM] | AUC [9, 13] | IC50 [9, 13] [µM] | AUC [10] | IC50 [10] [µM] | AUC [11] | IC50 [11] [µM]
1 | SW1417 (large intestine, adherent) | 0.653 | 0.00224 | 0.949 | > 2 | 0.976 | > 10 | 0.982 | > 20 | 0.986 | > 1.02 | 0.203 | 0.0353 | 0.984 | > 2.56 | 0.985 | > 0.128 | 0.885 | > 1 | 0.686 | 0.585 | 0.52 | 1.43 | 0.952 | > 10
2 | K2 (melanoma, adherent) | 0.92 | > 0.0125 | 0.982 | > 2 | 0.982 | > 10 | 0.971 | > 20 | 0.975 | > 1.02 | 0.143 | < 0.02 | 0.95 | > 2.56 | 0.949 | > 0.128 | 0.974 | > 1 | 0.84 | > 2.56 | 0.712 | 6 | 0.904 | > 10
3 | SF295 (glioma, adherent) | 0.88 | > 0.0125 | 0.962 | > 2 | 0.89 | > 10 | 0.958 | > 20 | 0.952 | > 1.02 | 0.131 | < 0.02 | 0.979 | > 2.56 | 0.755 | 0.0467 | 0.972 | > 1 | 0.663 | 0.473 | 0.46 | 0.964 | 0.836 | 7.38
4 | CAL-85-1 (breast, adherent) | 0.759 | 0.00556 | 0.974 | > 2 | 0.968 | > 10 | 0.791 | 11.9 | 0.94 | > 1.02 | 0.253 | 0.05 | 0.723 | 0.836 | 0.747 | 0.0511 | 0.974 | > 1 | 0.383 | 0.0694 | 0.64 | 3.4 | 0.935 | > 10
5 | BT-20 (breast, adherent) | 0.719 | 0.00384 | 0.984 | > 2 | 0.975 | > 10 | 0.957 | > 20 | 0.967 | > 1.02 | 0.074 | < 0.02 | 0.978 | > 2.56 | 0.671 | 0.027 | 0.981 | > 1 | 0.918 | > 2.56 | 0.648 | 3.56 | 0.949 | > 10
6 | GMS-10 (glioma, adherent) | 0.574 | 0.00125 | 0.985 | > 2 | 0.982 | > 10 | 0.988 | > 20 | 0.976 | > 1.02 | 0.233 | 0.0543 | 0.972 | > 2.56 | 0.987 | > 0.128 | 0.982 | > 1 | 0.96 | > 2.56 | 0.787 | 8.6 | 0.908 | > 10
7 | JHH-4 (liver, adherent) | 0.958 | > 0.0125 | 0.97 | > 2 | 0.984 | > 10 | 0.919 | > 20 | 0.981 | > 1.02 | 0.674 | 0.974 | 0.96 | > 2.56 | 0.985 | > 0.128 | 0.975 | > 1 | 0.851 | 1.94 | 0.289 | 0.319 | 0.887 | > 10
8 | HGC-27 (stomach, adherent) | 0.47 | 0.000657 | 0.989 | > 2 | 0.99 | > 10 | 0.89 | 16.9 | 0.97 | > 1.02 | 0.023 | < 0.02 | 0.982 | > 2.56 | 0.844 | 0.072 | 0.986 | > 1 | 0.411 | 0.0951 | 0.436 | 0.859 | 0.89 | 8.42
9 | NUGC-4 (stomach, adherent) | 0.833 | 0.0081 | 0.969 | > 2 | 0.981 | > 10 | 0.703 | 4.66 | 0.982 | > 1.02 | 0.045 | < 0.02 | 0.966 | > 2.56 | 0.964 | > 0.128 | 0.986 | > 1 | 0.986 | > 2.56 | 0.439 | 0.851 | 0.737 | 2.97
10 | SNU-387 (liver, adherent) | 0.629 | 0.00187 | 0.962 | > 2 | 0.965 | > 10 | 0.847 | 18 | 0.944 | > 1.02 | 0.053 | < 0.02 | 0.687 | 0.577 | 0.969 | > 0.128 | 0.982 | > 1 | 0.539 | 0.207 | 0.271 | 0.252 | 0.883 | > 10
11 | 8305C (thyroid, adherent) | 0.763 | 0.00585 | 0.975 | > 2 | 0.966 | > 10 | 0.828 | 17.9 | 0.947 | > 1.02 | 0.975 | > 5.12 | 0.887 | > 2.56 | 0.973 | > 0.128 | 0.972 | > 1 | 0.546 | 0.222 | 0.982 | > 20 | 0.918 | > 10
